About 540 (0.36%) of roughly 150,000 compounds showed an effect of 50% or more. Some of the results follow.
What follows are molecules tested on Plasmodium falciparum (assay: Primary screen in NF54 nanoGlo assay, in single point, at 2uM, 72h; a lower Z score goes with more inhibition). Conditions: timepoint 72 hour.
Assay type: functional, Erythrocyte

SMILES | % Inhibition [%] | Z score
COc1ccc2oc([C@H](C)NCc3cnc(C)o3)c(C)c2c1 | -5 | 0.94
Cc1nn(C)c(C)c1-c1cc(C(=O)NC2CCN(CC(F)F)CC2)[nH]n1 | -7 | 1.14
Cc1ccc(NC(=O)N2CCC(=O)N3CCOC[C@H]32)cc1 | -10 | 1.54
CCCN(Cc1nnc(-c2ccco2)o1)C(=O)COc1ccc2oc3ccccc3c2c1 | 4 | -0.76
CC(C)(C)OC(=O)N1CCN(CC(O)CN2CCCC2CO)CC1 (stereo not given) | -3 | 0.65
O=C(Cc1[nH]nc2ccccc12)N1CC2CCCC(O)(c3ccccc3)C2C1 (stereo not given) | 2 | -0.43
COc1cccc(-c2cc3cc(Cl)ccc3[nH]2)c1 | -1 | 0.15
c1nc(NCC2CC2)cc(N2CCC[C@H](N3CCCC3)CC2)n1 | -12 | 2.03
CCNc1ncc(C(=O)NC(C2CCNCC2)[C@H]2C[C@H](O)C2)cn1 (stereo not given in full) | -3 | 0.54
CC(C)C[C@@H](CN=C(N)NC(C)C)N(C)C | 8 | -1.63
CN(C[C@H](O)CN1CCc2ccccc2CC1)C(=O)c1cc(-c2ccc(F)cc2)[nH]n1 | 3 | -0.47
O=C1NC[C@@H](O)CC12CCN(c1nnc(Cc3ccccc3)s1)CC2 | -3 | 0.44
OC1CCC1Nc1ncnc2cc(F)ccc12 (stereo not given) | -2 | 0.37
Cc1ccc(CN2CCc3onc(-c4ccccc4)c3C2)c2cccnc12 | 4 | -0.82
OCC[C@]1(CNc2nccc(N3CCOCC3)n2)CCOC1 | -1 | 0.16
COCCNc1noc(-c2ccc(Cl)cc2)c1C(=O)NC1CNCCC1OC (stereo not given) | 2 | -0.38
CN1C[C@@H](NC(=O)c2ccc(-c3ccc4c(ccn4C)c3)cc2)CCC1=O | 2 | -0.38
CN(CCCNC1CCC2(CCNCC2)CC1)c1ccccc1 | 6 | -1.27
O=C(NCc1ccc2c(O)ccnc2c1)[C@@H]1CCCN1C1CCCC1 | -6 | 1.08
O=C(Nc1ccc2cn[nH]c2c1)NC1CCN(C2CCOCC2)CC1 | -4 | 0.84
COC[C@@H](C)CC(=O)Nc1cncc(-c2cnc3[nH]ccc3c2)c1 | -19 | 3.39
CCN1CCN(C(=O)N2CCCC[C@H](c3ccc(F)cc3)C2)C(=O)C1=O | 6 | -1.01
CCCCN1CCn2nc(CNC(=O)c3ccc4c(c3)CCCO4)cc2C1 | -4 | 0.87
CC1CN(CCNCc2cccc(-c3ccccc3)c2)CC(C)O1 (stereo not given) | -14 | 3.03
CC(C)Nc1nc(N)nc2c1CCN(C(=O)C1(C)CCNCC1)CC2 | -4 | 0.66
CC(=O)NCc1ccc([C@@H]2CCCN2C(=O)c2cc(F)c(F)c(O)c2F)o1 | 4 | -0.77
Cn1nc(-c2ccco2)cc1NC(=O)N1CCCC2(CCCCC2)C1 | -10 | 1.45
CN(C)c1cc(CNc2nc3cccnc3nc2NCc2ccnc(N(C)C)c2)ccn1 | -9 | 1.6

SMILES | % Inhibition [%] | Z score
Cn1ncc2c(N)nc(N[C@H]3CCN(c4ccc(F)cc4F)C3)nc21 | 3 | -0.38
CC(C)(NCCCc1ccccc1)C(=O)NC1CCC(O)CC1 (stereo not given) | 7 | -1.29
c1cnc(N2CCOCC2)c(CNC2CCN(c3ccncc3)CC2)c1 | 9 | -1.69
O[C@@H](CNc1nc2cc(F)ccc2o1)c1cc(Cl)c2c(c1)OCCO2 | -1 | 0.11
O=C(c1ccccc1Nc1nc(-c2ccccc2)c2cc(Br)ccc2n1)N1CCOCC1 | -13 | 1.94
CCCC(C)C(=O)NCC(C)(O)COC (stereo not given) | -4 | 0.82
C[C@@H](c1cccc(-c2ccc(Oc3ccc(N)cn3)cc2)c1)N1CCCC1 | -1 | 0.24
CN1CCC[C@@]2(CCN(c3nc4ccccc4o3)C2)C1=O | -14 | 2.8
COc1ccnc(Nc2cc(F)c(N3CCCC3)c(F)c2)n1 | 7 | -1.22
O=C(NCCN1CCCC[C@@H]1CO)c1cc(-c2ccsc2)[nH]n1 | -2 | 0.29
CC(C)n1ccc(C(=O)N2C[C@@H](C#N)[C@H](c3ccccc3)C2)n1 | -2 | 0.33
CN1CCN(c2cc(CN[C@H]3CCCc4ccc(O)cc43)ccn2)CC1 | -2 | 0.29
c1cc(CNc2nnc(-c3ccc4c(c3)OCO4)o2)n2ccnc2c1 | -4 | 0.93
CC1(C)CC(Nc2oc(-c3cccnc3)nc2C#N)CC(C)(C)N1 | 0 | -0.03
Cc1ccc(C(=O)N2CC3CCCC(C2)N(C)C3=O)cc1OCCCN (stereo not given) | -12 | 2.11
Nc1nc(NCc2cccc3c2OCCCO3)nc2ccccc12 | 2 | -0.49
CCCNc1ncc(CN2CCN(c3cc(N)nc(N)n3)CC2)cn1 | -8 | 1.28
N#Cc1cc(Br)cnc1NCCNC1CCCCCC1 | -6 | 0.85
Cc1nc(NCC2CCN(CC#N)CC2)c2c(C)csc2n1 | -2 | 0.3
Cc1nccc(NCC(C)(C)CN(C)C)n1 | 5 | -0.93
O=C(c1cc(C(F)(F)F)[nH]n1)N1CC[C@](CO)(c2ccccc2)C1 | 8 | -1.37
CN(C)CCN1CCC(NC(=O)N2CCCC[C@@H]2CCn2ccnc2)CC1 | -10 | 1.64
Cc1nccn1-c1cncc(N(C)Cc2ccccc2O)n1 | -7 | 1.58
Cc1sc2ccccc2c1CN1CCN2C(=O)CN(C)C(=O)[C@@H]2C1 | -8 | 1.41
CCS(=O)(=O)C1CCN(C(=O)c2cc(O)cc(O)n2)CC1 | -2 | 0.28
Cc1ccc(-c2cccc(NC(=O)NCCN3CCC(CO)CC3)c2)cc1 | 6 | -0.87
COc1ccc2oc(C)c(C(=O)[C@H](C#N)c3nc4ccccc4o3)c2c1 | -9 | 1.58
